Measured values as given in PubChem BioAssay AID2676 (National Center for Advancing Translational Sciences (NCATS), 2010).
Among all 370,000 compounds or so, about 1,100 (0.3%) were called active. The shares of active, inactive and inconclusive entries below differ from those in the screen. The call rests on the fitted dose curve; in most records, active means well fitted activation curve with a large enough effect; inconclusive means small, poorly fitted or top-dose-only effect; inactive means flat fitted curve, though single readings scatter. Where the call is inconclusive, the potency comes from a doubtful curve fit.

target: Relaxin receptor 1 (Homo sapiens) (UniProt Q9HBX9); assay: qHTS Assay for Agonists of the Relaxin Receptor RXFP1; conditions: HEK293T-RXFP1 cAMP TR-FRET, 30 min; series mostly up to 57.5 µM; activation: at the top concentration; further: nearly all actives have a fitted effect of over 60% in size
Summary of the method: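 HEK293 cells stably expressing RXFP1, treated 30 min at 37C with compounds plus PDE4 inhibitor Ro 20174; cAMP measured by HTRF TR-FRET. Normalized to buffer and 29 nM porcine relaxin; EC50 by Hill fit.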
On the % scale 0 is the no-effect control and ±100 the full control effect; potency means the concentration at half of the fitted maximal effect; tags describe the fitted curve by direction and shape.

Chain of UniProt Q9HBX9 (Q9HBX9 whole entry, looked up): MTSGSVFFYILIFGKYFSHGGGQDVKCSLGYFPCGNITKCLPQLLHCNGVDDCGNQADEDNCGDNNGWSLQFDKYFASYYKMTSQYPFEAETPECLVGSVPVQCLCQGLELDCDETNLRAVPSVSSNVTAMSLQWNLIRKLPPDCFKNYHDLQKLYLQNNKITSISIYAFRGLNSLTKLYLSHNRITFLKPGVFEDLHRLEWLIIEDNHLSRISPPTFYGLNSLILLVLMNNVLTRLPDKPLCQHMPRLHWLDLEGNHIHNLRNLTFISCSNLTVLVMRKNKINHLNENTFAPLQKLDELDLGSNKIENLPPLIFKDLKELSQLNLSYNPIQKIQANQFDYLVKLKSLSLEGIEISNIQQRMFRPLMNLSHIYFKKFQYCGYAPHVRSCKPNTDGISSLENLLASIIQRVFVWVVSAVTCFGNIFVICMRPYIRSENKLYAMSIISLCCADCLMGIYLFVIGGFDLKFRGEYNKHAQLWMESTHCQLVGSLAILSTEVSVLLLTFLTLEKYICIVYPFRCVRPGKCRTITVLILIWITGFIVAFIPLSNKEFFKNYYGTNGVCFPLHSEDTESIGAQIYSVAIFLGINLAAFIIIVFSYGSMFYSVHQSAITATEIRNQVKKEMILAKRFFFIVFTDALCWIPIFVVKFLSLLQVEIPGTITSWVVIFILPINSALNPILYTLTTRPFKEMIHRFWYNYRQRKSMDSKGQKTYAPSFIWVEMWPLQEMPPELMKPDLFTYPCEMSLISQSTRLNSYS

Potency, active:
Cc1ccc(CNC(=O)CCCCCn2c(=O)c3sccc3n(CC(=O)Nc3ccc(C)c(F)c3)c2=O)cc1 31.6 µM
CCOC(=O)c1c(NC(=O)CSc2nc(C)cc(C)c2C#N)sc(C(C)=O)c1C 17.8 µM
O=C(O)c1ccc(Cn2c(SCc3cc(=O)n4cc(Br)ccc4n3)nc3ccsc3c2=O)cc1 15.8 µM
C/C(=N\NC(=O)c1c(C)nc2ccccn12)c1ccc(N2CCOCC2)cc1 14.1 µM

Potency, inconclusive:
CCOC(=O)c1nn2c(C(F)(F)F)cc(-c3ccc(OC)cc3)nc2c1Br 22.4 µM [activator, single point]
O=C(Nc1cc(Cl)cc(Cl)c1)c1coc(=O)c(Br)c1 35.5 µM [activator, partial curve]
COc1ccc(NC(=O)c2oc3ccccc3c2NC(=O)C23CC4CC(CC(C4)C2)C3)c(OC)c1 39.8 µM [activator, single point]
COc1ccc(NC(=O)Cn2c(=O)c3cc(Cl)ccc3n3nncc23)cc1 25.1 µM [activator, single point]
CCOc1ccc(C(=O)c2cn(CC(=O)Nc3ccc4c(c3)OCCO4)c3ccc(F)cc3c2=O)cc1 39.8 µM [activator, single point]
CC1CCN(C(=O)CSc2nnc(-c3ccccc3)o2)CC1 25.1 µM [activator, single point]
CCOC(=O)CC1C(=O)NCCN1C(=O)c1cc2c(=O)n3ccccc3nc2s1 (centres undefined) 20 µM [activator, partial curve]
COc1ccc(-n2nnc(-c3nsc(NC(=O)c4ccc(C)c(C)c4)n3)c2C)cc1Cl 22.4 µM [activator, partial curve]
CCOc1cc(C2NC(=O)NC(c3ccccc3)=C2C(=O)c2ccccc2)c(Br)cc1OCC(=O)O (centres undefined) 20 µM [activator, partial curve]
Cc1ccc2[nH]c(=O)c(COC(=O)c3cccs3)cc2c1 39.8 µM [activator, single point]
CN1CCN(C(=O)CSc2nc3c(c(=O)n(C)c(=O)n3C)n2C)CC1 20 µM [activator, partial curve]
COc1ccc(NC(=O)c2cn3c4c(ccc(Cl)c4c2=O)OC(C)C3)cc1OC (centres undefined) 35.5 µM [activator, single point]
Cc1cc2nnc(SCC(=O)N(C)C3CCS(=O)(=O)C3)n2c2ccccc12 (centres undefined) 20 µM [activator, partial curve]
CCOc1ccc(NC(=O)Cn2cc(C(C)=O)c3ccccc32)cc1 35.5 µM [activator, single point]
Cc1cc(SCC(=O)NCC2CCCO2)nc2ccccc12 (centres undefined) 15.8 µM [activator, partial curve]
COc1ccc(S(=O)(=O)N2CCN(CC(=O)Nc3ccc(Cl)c(C(F)(F)F)c3)CC2)cc1 25.1 µM [activator, single point]
COc1ccc(-c2cc(C(F)(F)F)c(C#N)c(SCC(=O)Nc3ccccc3F)n2)cc1 6.31 µM [activator, single point]
Nc1cc(=O)[nH]c(SCC(=O)Nc2cc(S(=O)(=O)N3CCOCC3)ccc2Cl)n1 15.8 µM [activator, partial curve]
CCc1ccccc1NC(=O)c1sc(-n2nc(C)c(Cc3ccc4c(c3)OCO4)c2C)nc1C 39.8 µM [activator, single point]
CCOC(=O)c1ccc(NC(=O)CSc2ccc(-c3sc(C)nc3C)nn2)cc1 39.8 µM [activator, single point]
COc1ccc(C(=O)Nc2nc3ccc(S(C)(=O)=O)cc3s2)cc1OC 39.8 µM [activator, single point]
CCc1cccc(C)c1NC(=O)CSc1nc(-c2ccccc2F)nc2nc[nH]c12 39.8 µM [activator, single point]
O=C(NCC1CCCO1)c1ccc2c(=O)n(-c3ccc(F)cc3)c(=S)[nH]c2c1 (centres undefined) 35.5 µM [activator, single point]
COc1ccc2nc(Cl)c(C3CC(c4ccco4)=NN3C(=O)CCCC(=O)O)cc2c1 (centres undefined) 28.2 µM [activator, partial curve]
O=C(Cn1ncc2c3ccccc3n(Cc3ccccc3F)c2c1=O)NCCc1ccc(Cl)cc1 39.8 µM [activator, single point]
O=S(=O)(Nc1ccccc1C(F)(F)F)c1ccc(-c2ccccn2)s1 25.1 µM [activator, partial curve]
CC(=O)c1sc(NC(=O)c2ccc(C)c(C)c2)nc1C 35.5 µM [activator, single point]
COc1ccc(OC)c(/C=N/n2c(COc3ccccc3)n[nH]c2=S)c1 25.1 µM [activator, single point]
CCOc1ccccc1NC(=O)c1sc(-n2nc(C)c(CCC(C)C)c2C)nc1C 39.8 µM [activator, single point]
O=C(Nc1ccc2c(c1)C(=O)NC2=O)c1cc(Cl)ccc1Cl 39.8 µM [activator, single point]
Cc1nc(SCC(=O)Nc2ccc(F)cc2)c(C#N)c(C)c1CC(=O)c1ccc(Br)cc1 22.4 µM [activator, single point]

activation, inactive:
CCc1nnc(N/N=C/c2ccc(N3CCC(C)CC3)c([N+](=O)[O-])c2)n1N 0.574%
COc1cc(/C=C/C(=O)Nc2ccc3[nH]c(=O)[nH]c3c2)cc(OC)c1OC 0.875%
CC(NC(=O)Cc1ccc(-c2ccccc2)cc1)c1ccccc1 (centres undefined) 2.72%
Cc1c(C)c2ccc(OCC(=O)NCCN3CCOCC3)c(C)c2oc1=O 6.28%
